Reference: patent US20230242633A1 (KANAPH THERAPEUTICS, published 2023)
Read-outs that look alike come from different tables or passages of the source.

T1: human VEGF165 (human, UniProt P15692-4 27-191)
T1 construct: also called human VEGF165 protein
T1 sequence (looked up): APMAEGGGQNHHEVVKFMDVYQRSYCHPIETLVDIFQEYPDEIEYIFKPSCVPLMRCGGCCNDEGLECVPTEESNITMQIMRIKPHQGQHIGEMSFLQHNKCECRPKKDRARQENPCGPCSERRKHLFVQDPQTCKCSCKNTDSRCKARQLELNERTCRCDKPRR

T2: human C2 (human, UniProt P06681 21-752)
T2 sequence (looked up): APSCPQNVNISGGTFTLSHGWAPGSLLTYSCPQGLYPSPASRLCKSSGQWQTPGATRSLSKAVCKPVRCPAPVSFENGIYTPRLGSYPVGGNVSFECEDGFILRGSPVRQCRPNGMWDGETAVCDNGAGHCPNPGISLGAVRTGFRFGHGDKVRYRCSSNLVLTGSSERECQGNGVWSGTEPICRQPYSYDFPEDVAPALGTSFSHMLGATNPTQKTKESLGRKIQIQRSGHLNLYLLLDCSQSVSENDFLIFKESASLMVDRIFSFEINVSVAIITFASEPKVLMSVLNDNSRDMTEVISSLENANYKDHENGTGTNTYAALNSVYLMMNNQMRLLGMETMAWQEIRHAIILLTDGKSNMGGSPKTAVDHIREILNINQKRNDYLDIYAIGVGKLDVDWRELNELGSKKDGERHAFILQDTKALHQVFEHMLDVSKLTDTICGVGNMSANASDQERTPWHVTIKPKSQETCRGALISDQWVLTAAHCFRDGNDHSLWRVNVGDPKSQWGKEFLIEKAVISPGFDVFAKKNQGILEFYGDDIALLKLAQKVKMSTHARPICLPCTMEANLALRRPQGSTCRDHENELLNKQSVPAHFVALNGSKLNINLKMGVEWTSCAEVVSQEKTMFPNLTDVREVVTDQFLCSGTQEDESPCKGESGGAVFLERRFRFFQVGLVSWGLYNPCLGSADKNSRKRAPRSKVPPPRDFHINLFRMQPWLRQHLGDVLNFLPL


Assays:
human VEGF165 [1] = biological target: T1, human VEGF165; assay: ELISA, human VEGF165 immobilised on the plate, detection by anti-human IgG
Description: Specifically, a human VEGF165 protein was immobilized on a plate, and C1.02, C1.04, and C1.05, and aflibercept and hIgG1 as controls were bound thereto. Next, an anti-human immunoglobulin G antibody and an anti-horseradish peroxidase (HRP) antibody were sequentially bound thereto.

human C3b [2] = biological target: T3, human C3b (human, UniProt P01024 23-667; P01024 partial chain, limits assumed); assay: ELISA, human C3b immobilised on the plate, detection by anti-human IgG; the curve has no upper plateau in the range shown
T3 construct: C3b is its cleaved fragment; also called human Cb3
Description: (§1) Specifically, a human C3b protein was immobilized on a plate, and C1.01, C1.02, C1.03, and C1.04, and hIgG1 as a control were bound thereto. Next, an anti-human immunoglobulin G antibody and an anti-horseradish peroxidase (HRP) antibody were sequentially bound thereto. Moreover, a mouse C3b protein was immobilized on a plate, and C1.01m to C1.03m containing mouse CRIg were bound to mouse C3b.

[3] = biological target: VEGF (as added in the reporter cell assay and the wound healing assay); assay: cell-based or functional assay
human C3b [4] = biological target: T3, human C3b; assay: ELISA, human C3b immobilised on the plate, detection by anti-human IgG
Description: as §1

human C2 = biological target: T2, human C2; assay: ELISA, human C2 immobilised on the plate, C1.02 added, detection by anti-human IgG
Description: Specifically, the human Cb3, C2, or C4 protein was immobilized on a plate, and C1.02 was bound thereto. Next, an anti-human immunoglobulin G antibody and an anti-horseradish peroxidase (HRP) antibody were sequentially bound thereto.

human C3b [5] = biological target: T3, human C3b; assay: SPR (Biacore 8K), fusion captured on anti-human IgG (Fc) CM5 chip, C3b as analyte, 1:1 model
Method: (§2) A C3b stock solution was diluted to 50 nM using a 1×HBS-EP+ buffer. Human VEGF165 was diluted to 5 nM using a 1×HBS-EP+ buffer. The 50 nM and 5 nM solutions were then diluted to 0.78125 nM and 0.078125 nM. In the sample step, the diluted antigens were injected into the flow cells at a rate of 30 μL/min. Two 0 nM antigens (1×HBS-EP+ buffer) were used and removed from the reference signal. Binding for 180 seconds and separation for 400 seconds were performed. After the separation time, a stabilization step for 60 seconds was performed. In the regeneration step, 10 mM glycine (pH 1.5) was injected into the flow cells at a rate of 30 μL/min for 30 seconds, followed by a stabilization step for 60 seconds.
(§3) After subtracting the reference and 0 nM values from the sample values, binding kinetics were calculated using Biacore Insight Evaluation Software (Version 2.0.15.12933) and 1:1 binding model for curved fitting.

human VEGF165 [6] = biological target: T1, human VEGF165; assay: SPR (Biacore 8K), fusion captured on anti-human IgG (Fc) CM5 chip, human VEGF165 as analyte, 1:1 model
Method: as §2, §3

human C3b [7] = biological target: T3, human C3b; assay: direct binding ELISA (rising curve), human C3b immobilised on the plate; the sheet labels the half-maximal value IC50
Description: (§4) The binding ability of C3b of a human and a cynomolgus monkey to C1.02, the binding ability of C3b of a human and a cynomolgus monkey to C1.06, the binding ability of the VEGFs of a human, a cynomolgus monkey, a rat, and a rabbit to C1.02, and the binding ability of the VEGFs of a human, a cynomolgus monkey, a rat, and a rabbit to C1.01 were confirmed through ELISA. Specifically, the C3b or VEGF of a human, a cynomolgus monkey, a rat, or a rabbit was immobilized on a plate, and C1.01, C1.02, or C1.06 was bound thereto. Next, an anti-human immunoglobulin G antibody and an anti-horseradish peroxidase (HRP) antibody were sequentially bound thereto.

human C3b [8] = biological target: T3, human C3b; assay: as above; remark: listed apart in the source
Description: as §4

rabbit C3b = rabbit C3b (rabbit, UniProt P12247 1-726); assay: direct binding ELISA (rising curve), rabbit C3b immobilised on the plate; the sheet labels the half-maximal value IC50
cynomolgus monkey C3b = biological target: T4, cynomolgus monkey C3b (cynomolgus monkey); assay: direct binding ELISA (rising curve), cynomolgus C3b immobilised on the plate; the sheet labels the half-maximal value IC50
T4 construct: also called C3b of a cynomolgus monkey
Description: as §4

T3 sequence (P01024 23-667 limits assumed, chain 1 of 2): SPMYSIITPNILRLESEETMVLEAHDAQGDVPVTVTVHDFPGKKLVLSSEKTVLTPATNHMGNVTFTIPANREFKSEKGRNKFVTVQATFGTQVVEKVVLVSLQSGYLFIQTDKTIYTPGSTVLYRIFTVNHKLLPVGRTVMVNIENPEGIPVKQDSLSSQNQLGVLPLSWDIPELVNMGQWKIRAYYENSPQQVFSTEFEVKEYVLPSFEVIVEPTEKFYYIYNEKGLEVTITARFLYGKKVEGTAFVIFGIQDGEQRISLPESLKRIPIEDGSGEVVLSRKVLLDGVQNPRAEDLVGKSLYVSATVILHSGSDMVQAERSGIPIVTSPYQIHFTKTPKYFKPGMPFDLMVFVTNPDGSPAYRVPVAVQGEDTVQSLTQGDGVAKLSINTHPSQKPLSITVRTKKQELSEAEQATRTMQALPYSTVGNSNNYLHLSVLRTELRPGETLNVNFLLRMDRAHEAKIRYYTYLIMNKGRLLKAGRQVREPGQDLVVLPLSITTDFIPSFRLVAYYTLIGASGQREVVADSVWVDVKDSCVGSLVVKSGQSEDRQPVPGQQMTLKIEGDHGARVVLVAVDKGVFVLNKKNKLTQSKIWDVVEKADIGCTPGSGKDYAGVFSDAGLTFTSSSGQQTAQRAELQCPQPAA
T3 sequence (P01024 749-1663 limits assumed, chain 2 of 2): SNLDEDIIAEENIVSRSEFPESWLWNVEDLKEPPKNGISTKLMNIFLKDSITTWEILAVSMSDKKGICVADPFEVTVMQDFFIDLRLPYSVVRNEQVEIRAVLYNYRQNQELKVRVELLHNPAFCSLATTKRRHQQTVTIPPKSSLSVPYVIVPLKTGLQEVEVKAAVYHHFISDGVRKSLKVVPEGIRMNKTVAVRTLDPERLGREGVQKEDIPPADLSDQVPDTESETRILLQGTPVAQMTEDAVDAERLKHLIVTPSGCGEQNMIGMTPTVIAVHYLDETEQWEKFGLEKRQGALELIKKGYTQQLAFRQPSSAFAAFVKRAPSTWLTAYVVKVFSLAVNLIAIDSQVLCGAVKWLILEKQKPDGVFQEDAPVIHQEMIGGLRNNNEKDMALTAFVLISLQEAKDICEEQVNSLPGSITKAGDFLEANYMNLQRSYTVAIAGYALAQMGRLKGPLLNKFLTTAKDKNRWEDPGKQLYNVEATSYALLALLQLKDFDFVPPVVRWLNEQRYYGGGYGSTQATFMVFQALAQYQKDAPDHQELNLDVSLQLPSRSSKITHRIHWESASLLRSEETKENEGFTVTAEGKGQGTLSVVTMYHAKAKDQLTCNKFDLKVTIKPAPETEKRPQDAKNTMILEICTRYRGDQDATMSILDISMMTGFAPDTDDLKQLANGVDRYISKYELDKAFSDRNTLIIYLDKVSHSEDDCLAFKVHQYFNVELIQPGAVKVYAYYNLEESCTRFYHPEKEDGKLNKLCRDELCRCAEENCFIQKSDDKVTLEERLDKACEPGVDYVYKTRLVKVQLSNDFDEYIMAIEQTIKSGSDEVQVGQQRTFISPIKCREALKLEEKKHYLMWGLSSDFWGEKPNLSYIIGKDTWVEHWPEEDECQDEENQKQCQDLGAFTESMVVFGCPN
Sequence of rabbit C3b (P12247 whole entry): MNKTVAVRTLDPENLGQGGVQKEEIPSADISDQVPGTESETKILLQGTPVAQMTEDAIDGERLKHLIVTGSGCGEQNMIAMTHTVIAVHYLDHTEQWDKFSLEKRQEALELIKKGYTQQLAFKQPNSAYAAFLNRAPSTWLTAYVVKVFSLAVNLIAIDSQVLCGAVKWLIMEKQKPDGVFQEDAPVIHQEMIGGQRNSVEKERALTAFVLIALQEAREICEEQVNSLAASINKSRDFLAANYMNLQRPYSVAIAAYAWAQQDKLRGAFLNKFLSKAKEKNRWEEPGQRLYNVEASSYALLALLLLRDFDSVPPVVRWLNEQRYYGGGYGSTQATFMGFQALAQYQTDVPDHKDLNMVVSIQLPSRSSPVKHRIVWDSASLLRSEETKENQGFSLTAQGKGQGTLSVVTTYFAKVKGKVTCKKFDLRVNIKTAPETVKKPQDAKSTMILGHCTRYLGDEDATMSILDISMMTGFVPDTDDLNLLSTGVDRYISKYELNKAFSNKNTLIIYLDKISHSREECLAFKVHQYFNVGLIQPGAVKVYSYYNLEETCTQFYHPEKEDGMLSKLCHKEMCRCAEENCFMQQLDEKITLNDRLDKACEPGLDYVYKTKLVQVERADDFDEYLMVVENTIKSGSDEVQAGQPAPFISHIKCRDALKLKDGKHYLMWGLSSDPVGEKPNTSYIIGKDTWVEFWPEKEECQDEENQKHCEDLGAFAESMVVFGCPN

Row | Binder | EC50 (human VEGF165 [1]) [µg/mL] | EC50 (human C3b [2]) [µg/mL] | IC50 (VEGF reporter cell luminescence) [3] [nM] | EC50 (human C3b [4]) [µg/mL] | Kd (human C3b [5]) [nM] | koff (human C3b [5]) [s⁻¹] | kon (human C3b [5]) [M⁻¹ s⁻¹] | further results
1 | C1.02 (hu CRIg-hu IgG1 Fc DANG-VEGF binder) (Fc fusion) [not shown - about 120 residues]LSVSKPTVTTGSGYGFTVPQGMRISLQCQARGSPPISYIWYKQQTNNQEPIKVATLSTLLFKPAVIADSGSYFCTAKGQVGSEQHSDIVKFVVKDSSKLLKTKTEAPTTMTYPLKATSTVKQSWDWTTDMDGYLGETSAGPGKSLPGGGGSDKTHTCPPCPAPELLGGPSVFLFPPKPKDTLMISRTPEVTCVVVAVSHEDPEVKFNWYVDGVEVHNAKTKPREEQYGSTYRVVSVLTVLHQDWLNGKEYKCKVSNKALPAPIEKTISKAKGQPREPQVYTLPPSRDELTKNQVSLTCLVKGFYPSDIAVEWESNGQPENNYKTTPPVLDSDGSFFLYSKLTVDKSRWQQGNVFSCSVMHEALHNHYTQKSLSLSPGGGGGSGGGGSSDTGRPFVEMYSEIPEIIHMTEGRELVIPCRVTSPNITVTLKKFPLDTLIPDGKRIIWDSRKGFIISNATYKEIGLLTCEATVNGHLYKTNYLTHRQTNTIIDVVLSPSHGIELSVGEKLVLNCTARTELNVGIDFNWEYPSSKHQHKKLVNRDLKTQSGSEMKKFLSTLTIDGVTRSDQGLYTCAASSGLMTKKNSTFVRVHEK | 0.033 | – | 3.07 | 0.399 | 4.34 | 0.0159 | 3.66e+06 | binding result (human C2): no binding (tested: 50 ng/mL); Kd (human VEGF165 [6]): 0.0628 nM; koff (human VEGF165 [6]): 0.000247 s⁻¹; kon (human VEGF165 [6]): 3.94e+06 M⁻¹ s⁻¹; IC50 (human C3b [7]): 0.102 nM; IC50 (human C3b [8]): 1.42 nM; IC50 (rabbit C3b): 39.1 nM; IC50 (cynomolgus monkey C3b): 0.129 nM
2 | C1.03 (hu IgG1 Fc DANG-hu CRIg) (Fc fusion) [not shown - about 250 residues][not shown - about 120 residues]LSVSKPTVTTGSGYGFTVPQGMRISLQCQARGSPPISYIWYKQQTNNQEPIKVATLSTLLFKPAVIADSGSYFCTAKGQVGSEQHSDIVKFVVKDSSKLLKTKTEAPTTMTYPLKATSTVKQSWDWTTDMDGYLGETSAGPGKSLPG | – | 5.03 | – | – | – | – | – | –
3 | C1.01 (hu CRIg-hu IgG1 Fc DANG) (Fc fusion, also called CRIg-Fc) [not shown - about 120 residues]LSVSKPTVTTGSGYGFTVPQGMRISLQCQARGSPPISYIWYKQQTNNQEPIKVATLSTLLFKPAVIADSGSYFCTAKGQVGSEQHSDIVKFVVKDSSKLLKTKTEAPTTMTYPLKATSTVKQSWDWTTDMDGYLGETSAGPGKSLPGGGGS[not shown - human IgG1 Fc with changes] | – | – | – | 0.191 | 3.47 | 0.0121 | 3.47e+06 | –

More lines, main results first:

Row | EC50 (human VEGF165 [1]) [µg/mL] | EC50 (human C3b [2]) [µg/mL] | IC50 (VEGF reporter cell luminescence) [3] [nM] | EC50 (human C3b [4]) [µg/mL] | Kd (human C3b [5]) [nM] | koff (human C3b [5]) [s⁻¹] | kon (human C3b [5]) [M⁻¹ s⁻¹] | Binder | further results
4 | 0.039 | 7.74 | – | – | – | – | – | C1.04 (VEGF binder-hu IgG1 Fc DANG-hu CRIg) (Fc fusion) SDTGRPFVEMYSEIPEIIHMTEGRELVIPCRVTSPNITVTLKKFPLDTLIPDGKRIIWDSRKGFIISNATYKEIGLLTCEATVNGHLYKTNYLTHRQTNTIIDVVLSPSHGIELSVGEKLVLNCTARTELNVGIDFNWEYPSSKHQHKKLVNRDLKTQSGSEMKKFLSTLTIDGVTRSDQGLYTCAASSGLMTKKNSTFVRVHEKGGGGSDKTHTCPPCPAPELLGGPSVFLFPPKPKDTLMISRTPEVTCVVVAVSHEDPEVKFNWYVDGVEVHNAKTKPREEQYGSTYRVVSVLTVLHQDWLNGKEYKCKVSNKALPAPIEKTISKAKGQPREPQVYTLPPSRDELTKNQVSLTCLVKGFYPSDIAVEWESNGQPENNYKTTPPVLDSDGSFFLYSKLTVDKSRWQQGNVFSCSVMHEALHNHYTQKSLSLSPGGGGGSGGGGS[not shown - about 120 residues]LSVSKPTVTTGSGYGFTVPQGMRISLQCQARGSPPISYIWYKQQTNNQEPIKVATLSTLLFKPAVIADSGSYFCTAKGQVGSEQHSDIVKFVVKDSSKLLKTKTEAPTTMTYPLKATSTVKQSWDWTTDMDGYLGETSAGPGKSLPG | –
5 | 0.02 | – | 1.68 | – | – | – | – | C1.05 (VEGF binder-hu IgG1 Fc DANG) (Fc fusion) SDTGRPFVEMYSEIPEIIHMTEGRELVIPCRVTSPNITVTLKKFPLDTLIPDGKRIIWDSRKGFIISNATYKEIGLLTCEATVNGHLYKTNYLTHRQTNTIIDVVLSPSHGIELSVGEKLVLNCTARTELNVGIDFNWEYPSSKHQHKKLVNRDLKTQSGSEMKKFLSTLTIDGVTRSDQGLYTCAASSGLMTKKNSTFVRVHEKGGGGS[not shown - human IgG1 Fc with changes] | –
6 | 0.026 | – | 1.83 | – | – | – | – | Aflibercept (Fc fusion, also called Eylea) SDTGRPFVEMYSEIPEIIHMTEGRELVIPCRVTSPNITVTLKKFPLDTLIPDGKRIIWDSRKGFIISNATYKEIGLLTCEATVNGHLYKTNYLTHRQTNTIIDVVLSPSHGIELSVGEKLVLNCTARTELNVGIDFNWEYPSSKHQHKKLVNRDLKTQSGSEMKKFLSTLTIDGVTRSDQGLYTCAASSGLMTKKNSTFVRVHEK[not shown - human IgG1 Fc] | –
